# According to PubChem BioAssay AID602179 (National Center for Advancing Translational Sciences (NCATS), 2012):
# Among all 390,000 compounds or so, about 360 (0.092%) were called active. The shares of active, inactive and inconclusive entries below differ from those in the screen. Calls come from the whole dose curve; as a rule, active = well fitted inhibition curve with a large enough effect; inconclusive = small, poorly fitted or top-dose-only effect; inactive = no such curve, though single readings can be large or run the other way. Where the call is inconclusive, the potency comes from a doubtful curve fit.
# Target: Isocitrate dehydrogenase [NADP] cytoplasmic (Homo sapiens) (UniProt O75874)
# UniProt O75874, sequence (O75874 whole entry, looked up, change not shown): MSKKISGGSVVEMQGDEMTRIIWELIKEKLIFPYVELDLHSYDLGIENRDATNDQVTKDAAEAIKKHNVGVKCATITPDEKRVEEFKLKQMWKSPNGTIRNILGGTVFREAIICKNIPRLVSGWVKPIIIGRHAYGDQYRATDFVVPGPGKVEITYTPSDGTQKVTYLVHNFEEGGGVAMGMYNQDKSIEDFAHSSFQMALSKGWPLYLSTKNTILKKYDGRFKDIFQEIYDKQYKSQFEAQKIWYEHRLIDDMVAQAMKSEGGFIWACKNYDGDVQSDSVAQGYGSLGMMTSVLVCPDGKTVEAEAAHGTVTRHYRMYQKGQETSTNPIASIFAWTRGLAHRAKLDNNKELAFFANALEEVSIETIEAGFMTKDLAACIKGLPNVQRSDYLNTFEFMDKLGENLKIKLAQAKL
# Experiment: qHTS for Inhibitors of mutant isocitrate dehydrogenase 1 (IDH1): qHTS; note: nearly all actives have a fitted effect of over 65% in size
# Conditions: IDH1-R132H enzyme, NADPH consumption, diaphorase/resazurin fluorescence; series mostly up to 76.6 µM
# Excerpt: Unbiased genomic sequencing for 22 glioma genomes found recurrent mutation of isocitrate dehydrogenase 1 (IDH1) on chromosome 2q33-a gene encoding the cytosolic isoform of IIDH1associated with the tricarboxylic acid cycle (TCA) that catalyzes the oxidative decarboxylation of isocitrate, yielding alpha-ketoglutarate and CO2 via NADP+ to NADPH conversion. Subsequent studies confirmed the recurrent IDH mutations in up to 70% of secondary gliomas and in 10% of AML cases. […] This in effect defines IDH1 as an oncogene, and provides an extraordinary opportunity to discover chemical probes against mutant IDH1 that may translate into much needed new therapies for glioma and AML patients. […] NIH Chemical Genomics Center [NCGC] NIH Molecular Libraries Probe Centers Network [MLPCN] […]
# IDH1-R132H (0.5 ug/mL) was dispensed into black, solid-bottom 1536-well plates at 3 uL/well in 20 mM Tris-HCl (pH 7.5), 150 mM NaCl, 10 mM MgCl2, 4 mM beta-ME, and 0.05% protease-free BSA. […] A pre-read was run on the Viewlux to identify fluorescent compounds (540 nm excitation filter, 598 nm emission filter, bodipy mirror and 2 second exposure). […] The plates were measured on an Envision plate reader for fluorescence signal using a 540 nm excitation filter and 590 nm emission filter with 10 flashes. […] Concentration-response curves were fitted to the signals arising from the resulting fluorescence. […]
# Potency is the fitted concentration of half-maximal effect; tags give direction and shape of the fitted curve.
row,Compound,Potency
1,Cc1ccc(S(=O)(=O)Oc2ccc(/C=C3/C(=N)N4C(=NC3=O)SN=C4S(C)(=O)=O)cc2)cc1,"inconclusive: 58.5 µM [inhibitor, partial curve, poor fit]"
2,COc1cc(/C=C2\C(=N)N3N=C(S(C)(=O)=O)SC3=NC2=O)ccc1OCCOc1ccccc1C,"inconclusive: 50.1 µM [inhibitor, single point]"
